Data as given in PubChem BioAssay AID686978 (National Center for Advancing Translational Sciences (NCATS), 2013).
Screen size: about 420,000 compounds; about 64,000 (15%) were called active. Inconclusive means that the source gave no clear call. Such entries were picked first, then a sample of the others. Calls follow the shape of the dose curve; as a rule, active = well fitted inhibition curve with a large enough effect; inconclusive = small, poorly fitted or top-dose-only effect; inactive = flat fitted curve, though single readings scatter. Potencies of inconclusive entries are left out as doubtful fits.

assay: qHTS for Inhibitors of human tyrosyl-DNA phosphodiesterase 1 (TDP1): qHTS in cells in absence of CPT; conditions: DT40 Tdp1-/- hTDP1 cells, no CPT, ATP luminescence, 48 h; activity change, negative = growth inhibition: at 46.2 µM (top of the series) unless noted; also: nearly all actives have a fitted effect of over 55% in size
Outline: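 Cells were dispensed at 400 per well, compounds added by pin tool, plates incubated ≥48 hr at 37 °C, then CellTiter-Glo added for 30 min at room temperature before luminescence reading. Line: DT40 Tdp1-/- complemented with hTDP1; camptothecin omitted.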
% is scaled to controls: 0 for no effect and ±100 for the full control effect; potency is read from the fitted curve at half-maximal effect; tags tell the direction and shape of the fitted curve.

SMILES	Potency	activity change, negative = growth inhibition
CC(=O)NNC(=O)c1[nH]c2ccc(Cl)cc2c1-c1ccccc1	inconclusive [inhibitor, partial curve]	
CCOC(=O)c1c(-c2ccc(C)cc2)csc1NC(=O)CCN1CC(C)OC(C)C1 (stereo not given)	active: 25.9 µM	
Cc1cccc(-n2c(C)cc(/C=C3/C(=N)N4C(c5ccccc5)=CSC4=NC3=O)c2C)c1	active: 20.6 µM	
Cc1ccc(N2CC(NC(=O)c3cc4ccccc4o3)CC2=O)cc1 (stereo not given)	inconclusive [inhibitor, single point]	
CCN(CC)CCCn1c2c(c(SCC(=O)Nc3cc(OC)cc(OC)c3)nc1=O)CCC2	active: 18.4 µM	
COc1ccc(N(CC(=O)NC2CCCCC2)C(=O)CCC(=O)Nc2nc(C)cs2)cc1OC		inactive: -13.6%
O=C(/C=C/c1ccco1)NC(=S)NNC(=O)c1ccco1	active: 20.6 µM	
CCCS(=O)(=O)NCc1c(C)ncc2c1CCN(C(=O)c1ccc3[nH]c4c(c3c1)CCCC4)C2	inconclusive [inhibitor, single point]	
COc1ccc(C(=O)CC(=O)c2ccccc2O)cc1OC	inconclusive [inhibitor, single point]	
Cc1ccc(C2NC(=S)NC3=C2C(=O)CC(C)(C)C3)cc1 (stereo not given)		inactive: 6.18%
C/C(=N/NC(=O)c1cn(-c2cccc(C)n2)cn1)c1ccc(C)cc1	inconclusive [inhibitor, partial curve]	
CCOC(=O)CN(C(=O)CNC(=O)c1cccs1)C(C(=O)NC1CCCCC1)c1cccs1 (stereo not given)		inactive: -25.7%
Cc1ccccc1NC(=O)C1CC(Cl)=CCC1C(=O)O (stereo not given)	active: 13 µM	
CCc1ccc(Cn2c(CNS(=O)(=O)c3ccc(C)c(C)c3)nc3cccnc32)cc1	inconclusive [inhibitor, single point]	
Cc1ccc(S(=O)(=O)N/N=C\c2ccc3c(c2)OCO3)cc1C		inactive: -16.5%
Cc1ccc(S(=O)(=O)N2C/C=C\CN(S(=O)(=O)c3ccccc3Br)CC2)cc1	inconclusive [inhibitor, single point]	
CCOC(=O)c1c(NC(=O)COC(=O)c2nc(Cl)ccc2Cl)sc(C(=O)N(C)C)c1C		inactive: 1.36%
COCCNc1nc(N)c([N+](=O)[O-])c(NCc2ccccc2)n1	inconclusive [inhibitor, single point]	
Cn1nc(-c2ccccc2F)c2cc(C(=O)Nc3ccc4c(c3)OCCO4)sc21	active: 20.6 µM	
O=C(CSc1ncnc2c1oc1ccccc12)Nc1cccc(F)c1	inconclusive [inhibitor, single point]	
CCOc1ccc(S(=O)(=O)N2CCOCC2)cc1NC(=O)CCOc1ccc(C(C)(C)C)cc1	inconclusive [inhibitor, single point]	
CC1(C)CC(=O)C2=C(C1)N(Cc1ccco1)C(=O)C2(NC(=O)c1ccc(Cl)cc1Cl)C(F)(F)F (stereo not given)	inconclusive [inhibitor, single point]	
CC(C)(C)NC(=O)COC(=O)c1ccccc1Nc1ccc(SC(F)F)cc1	active: 16.4 µM	
Fc1ccc(C2=Nn3c(nnc3-c3n[nH]c4c3CCC4)SC2)cc1	inconclusive [inhibitor, single point]	

SMILES	Potency	activity change, negative = growth inhibition
CCOc1ccc(C(=O)Nc2ccc3oc(-c4ccc5ccccc5c4)nc3c2)cc1	inconclusive [inhibitor, full curve]	
CCCCNC(=O)c1cc2n(n1)CCCN(Cc1ccc(C)cc1)C2=O	inconclusive [inhibitor, single point]	
C#CCNS(=O)(=O)c1ccc(F)cc1Br		inactive: 14.3%
Cc1nc(N2CCN(C(=O)c3ccco3)CC2)[nH]c(=O)c1C		inactive: 4.25%
CCOc1ccc(NC(=O)[C@@H]2CCC(=O)N2C2OC(=O)c3ccccc32)cc1 (stereo not given in full)		inactive: -23%
COc1cccc(CNC(=O)c2ccc3c(c2)sc2nc(-c4cccc(OC)c4)cn23)c1	active: 4.11 µM	
COc1ccc(N2CC(NC(=O)C(c3ccccc3)c3ccccc3)CC2=O)cc1 (stereo not given)		inconclusive: -30.8% [inhibitor]
CC1CC(C)CN(C(=O)c2cccc3c2-c2ccccc2C3=O)C1 (stereo not given)	inconclusive [inhibitor, single point]	
CCCn1c(C(C)Nc2nc(-c3ccc(OC)cc3)cs2)nc2ccccc21 (stereo not given)	inconclusive [inhibitor, single point]	
COC(=O)COc1ccc(NS(=O)(=O)c2cccc([N+](=O)[O-])c2)cc1		inactive: 2.53%
CC(C)COc1ccc(C(=O)N(CC(=O)Nc2ccccc2C(F)(F)F)Cc2ccco2)cc1	inconclusive [inhibitor, single point]	
CCn1c(SCC(=O)Nc2cc(C(C)(C)C)nn2-c2ccccc2)nnc1-c1cccs1	inconclusive [inhibitor, single point]	
Cc1c(NC(=O)c2ccc(NS(=O)(=O)c3ccc(F)c(F)c3)cc2)c(=O)n(-c2ccccc2)n1C		inactive: -4.47%
Cc1cccc(N2CCN(C(=O)c3cnn(-c4ccccc4)c3C3CCN(C(=O)OC(C)(C)C)CC3)CC2)c1C	active: 16.4 µM	
CCOC(=O)C1CCN(C(=O)COc2ccc(Br)cc2Br)CC1		inactive: -5.52%
O=C(CNC(=O)c1cccc(-n2cccc2)c1)Nc1ccccc1Br		inactive: -31.1%
CCOC(=O)c1c(NC(=O)C(C)Sc2cn(CCNC(=O)c3ccc(OCC)cc3)c3ccccc23)sc2c1CCC2 (stereo not given)	inconclusive [inhibitor, partial curve]	
Cc1cc(NC(=O)CSc2nc3cc(Cl)ccc3o2)no1	active: 2.59 µM	
Cc1cccc(OCc2nnc(-c3ccc(F)cc3)o2)c1		inactive: -1.54%
Cc1cc(C)cc(N=c2c([N+](=O)[O-])nn(-c3cccc(Cl)c3)n2O)c1	inconclusive [inhibitor, single point]	
COc1ccc(OC)c(CN2CCN(c3ccc(S(=O)(=O)N4CCCC4)cn3)CC2)c1	inconclusive [inhibitor, single point]	
O=C1c2ccccc2NC(c2ccncc2)N1c1ccccn1 (stereo not given)		inactive: -5.13%
CCOC(=O)c1ccc(NC(=O)Cn2nc(C)c3nn(-c4ccc(Cl)cc4)c(C)c3c2=O)cc1	inconclusive [inhibitor, single point]	
O=C1CSC(c2cn(-c3ccccc3)nc2-c2cc3ccccc3oc2=O)N1Cc1ccccc1 (stereo not given)	inconclusive [inhibitor, full curve, poor fit]	

SMILES	Potency	activity change, negative = growth inhibition
COc1ccc(C(=O)Nc2ccc(NC(=O)c3ccco3)cc2)cc1		inactive: -15.5%
O=C(Nc1cccc(Cl)c1)c1ccc(-n2cncn2)c([N+](=O)[O-])c1	inconclusive [inhibitor, partial curve]	
CCn1cc(C(=O)NCCc2ccc(OC)cc2)c(=O)c2ccc(C)nc21	active: 23.1 µM	
Cn1c(=O)c2c(nc(SCC(=O)NCc3ccc4c(c3)OCO4)n2Cc2ccccc2)n(C)c1=O		inconclusive: -30.1% [inhibitor]
O=C(CSc1nnc(CNC(=O)c2c(F)cccc2F)o1)NCc1ccc2c(c1)OCO2		inactive: -25.8%
COCCn1c(C)cc(C(=O)CN2C(=O)C(=O)N(CCC3=CCCCC3)C2=O)c1C	inconclusive [inhibitor, single point]	
O=C1CC(c2ccccc2)c2cccc(F)c21 (stereo not given)		inactive: -25.6%
CC1CCN(CCNC(=O)c2ccc3c(=O)n(Cc4ccc(Cl)cc4)c(=S)[nH]c3c2)CC1	inconclusive [inhibitor, single point]	
CCCCCCN1CCN(C2CN(Cc3ccccc3)S(=O)(=O)C2)CC1 (stereo not given)	inconclusive [inhibitor, single point]	
CC(C)(C)C(=O)OCC1OC(n2cnc(C(N)=O)n2)C(O)C1O (stereo not given)	inconclusive [inhibitor, single point]	
Cc1ccc(Nc2ncnc3c2nc2n3CCCC2)cc1F	inconclusive [inhibitor, single point]	
Cc1ccccc1S(=O)(=O)Cc1ccc(C(=O)NCCN(CC(C)C)CC(C)C)o1	inconclusive [inhibitor, single point]	
COc1ccccc1CN1CCC2(CC1)CCN(C(=O)c1cc(C(F)(F)F)cc(C(F)(F)F)c1)CC2	active: 20.6 µM	
Clc1ccc(CSc2nncn3c2cc2occc23)cc1	inconclusive [inhibitor, single point]	
CCOc1ncccc1C(=O)NCC1COc2ccccc2O1 (stereo not given)	inconclusive [inhibitor, single point]	
CC1CCCC(C)N1C(=O)CSc1nc2ccccc2s1 (stereo not given)	inconclusive [inhibitor, single point]	
CCOc1ccc(N(C)C(=O)CCc2nnc3ccc(NCc4ccco4)nn23)cc1	inconclusive [inhibitor, single point]	
CCCCN(C(=O)CCC(=O)Nc1cc(C)on1)C(C(=O)NC1CCCC1)c1ccc(F)cc1 (stereo not given)		inactive: -97.7%
COc1ccc(-c2csc(NC(=O)c3ccc(S(=O)(=O)N4CCc5ccccc5C4)cc3)n2)cc1	inconclusive [inhibitor, single point]	
Cc1nc2nc[nH]n2c(=O)c1NS(=O)(=O)c1ccc(Br)cc1		inactive: -10.5%
CCOc1ccc(N2C(=O)CC(N3CCN(c4ccc(C(=O)c5ccncc5)cc4)CC3)C2=O)cc1 (stereo not given)	active: 20.6 µM	
CCOc1ccc(C(=O)Nc2ccc(S(=O)(=O)NCC3CCCO3)cc2)cc1OCC (stereo not given)	inconclusive [inhibitor, single point]	
